# According to PubChem BioAssay AID686979 (National Center for Advancing Translational Sciences (NCATS), 2013):
# The whole screen tested about 420,000 compounds, of which about 50,000 (12%) were called active. Another 26% or so got no clear call; they are omitted. The call rests on the fitted dose curve; in most records, active means well fitted inhibition curve with a large enough effect; inconclusive means small, poorly fitted or top-dose-only effect; inactive means flat fitted curve, though single readings scatter. The entries are a selection whose mix differs from that of the whole data set. A structure can be active in one record and inactive in another.
# Assay: qHTS for Inhibitors of human tyrosyl-DNA phosphodiesterase 1 (TDP1): qHTS in cells in presence of CPT; further: nearly all actives have a fitted effect of over 55% in size
# Details: chicken DT40 Tdp1-/-;hTDP1 cells + 20 nM CPT, ATP luminescence, 48 h; series mostly up to 46.2 µM; activity change, negative = growth inhibition: at the top concentration
# How it was run: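 Chicken DT40 Tdp1-/- cells stably complemented with human TDP1 were seeded at 400 cells/well in medium containing 20 nM camptothecin, exposed to pin-transferred compounds, and grown at 37 °C for at least 48 hr. Viability was read as ATP luminescence.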
# On the % scale 0 is the no-effect control and ±100 the full control effect; potency means the concentration at half of the fitted maximal effect.
Structure (SMILES),"activity change, negative = growth inhibition",Potency
COc1ccc(-c2cc(=O)c3c(O)cc(O[C@@H]4OC(COC5OC(C)C(O)C(O)[C@@H]5O)C(O)C(O)C4O)cc3o2)cc1 (some centres undefined),inactive: 4.99%,
COC(=O)c1ccc(CN2[C@H](C(=O)OC)C[C@@]3(O)[C@H](O)[C@H](O)[C@H](O)C[C@@H]23)cc1,inactive: -14.2%,
N#Cc1ccc(CN2CC3(CCN(C(=O)c4cc(C(F)(F)F)cc(C(F)(F)F)c4)CC3)C2)cc1,,active: 20.6 µM
COc1ccc(CNC(=O)CCCn2c(=O)c3cccn3c3cccnc32)cc1,inactive: -27.3%,
C[C@@H]1CN([C@H](C)CO)C(=O)CCCn2nncc2CO[C@H]1CN(C)S(=O)(=O)c1ccc2c(c1)OCCCO2,inactive: -4.64%,
COC(=O)C[C@H]1c2cc(C(F)(F)F)ccc2S(=O)(=O)N1Cc1ccc(OC)cc1,inactive: -21.6%,
COC(=O)C1=COC(OC2OC(CO)C(O)C(O)C2O)C2C1C=CC2(O)CO (centres undefined),inactive: 3.93%,
CCC(C)OC(=O)C1=C(C)OC23OC(N)=C(C#N)C12C(=O)c1ccccc13 (centres undefined),inactive: -14.4%,
CCOCCCNC(=O)C(=O)NCCCOCC,inactive: 37.7%,
CCCCCC(O)c1cccc(OCc2ccc3ccccc3n2)c1 (centres undefined),inactive: -10.5% [at 4.12 µM],
COc1ccc2[nH]c(-c3ccccc3)c(CCNC(C)=O)c2c1,inactive: 0.879%,
Cc1ccccc1CO/N=C/c1[nH]ncc1Br,inactive: 15.9%,
COc1cc(NC(=O)Cn2c(C)cc3ccccc3c2=O)cc(OC)c1OC,inactive: -11.9%,
NC(=O)OCC(COC(N)=O)c1ccccc1,,inactive
CCCCn1nc(NC(=O)c2cccs2)c2cc3ccccc3nc21,,active: 20.6 µM
COc1cc(NC(=O)c2nccn2C)cc(C(=O)Nc2cccc(C(F)(F)F)c2)c1,inactive: -67.1%,
Cc1ccccc1C(C)(O)c1cnc(C)n1Cc1ccccc1 (centres undefined),,active: 20.6 µM
CCOC(=O)C[C@H]1c2cc(F)ccc2S(=O)(=O)N1c1ccccc1,inactive: 5.64%,
O=c1[nH]c2cc(C(F)(F)F)ccc2n1-c1cc(C(F)(F)F)ccc1O,inactive: -24.6%,
O=c1cc(-c2ccccc2)oc2cc(O)c(O)c(O)c12,inactive: -107%,
COc1cc2nc(N3CCN(C(=O)[C@@H]4CCCO4)CC3)nc(N)c2cc1OC,inactive: 10.6%,
O=C(Cc1ccccc1)c1nnc(-c2ccccc2)o1,inactive: 12.2%,
CCCCc1cc(=O)oc2cc(OCC(=O)NCCN3CCOCC3)c(Cl)cc12,,active: 13 µM
O=c1cc(N2CCN(c3ccc(F)cc3)CC2)[nH]c(=O)n1-c1cccc(Br)c1,,active: 10.3 µM
COc1ccccc1CNC(=O)c1cnn(-c2ccc(F)cc2F)c1C1CCN(C(=O)OC(C)(C)C)CC1,,active: 16.4 µM

Structure (SMILES),"activity change, negative = growth inhibition",Potency
Cn1c(=O)cc(OCC(=O)N2CCN(c3ccccc3F)CC2)c2ccccc21,inactive: -0.224%,
CC(C)OC(=O)/C(=C/c1cccnc1)NC(=O)c1ccccc1,inactive: 30.5%,
CCC(C(=O)OCC(=O)Nc1cc(C)ccc1OC)c1ccccc1 (centres undefined),inactive: 33.2%,
COc1ccc(C)cc1NC(=O)c1noc2c1CSc1ccccc1-2,inactive: 31.2%,
CC(C)OC(=O)C(C)(C)Oc1ccc(C(=O)c2ccc(Cl)cc2)cc1,,inactive
NC(=O)CC[C@H](N)C(=O)O,inactive: -3.97%,
O=C1c2ccccc2C(=O)C1c1ccc(Br)cc1,,inactive
CCOC(=O)[C@@H]1[C@H]2COc3ccc(Br)cc3[C@@H]2N2C(=O)N(c3ccccc3)C(=O)[C@]12C,inactive: -4.71%,
COc1ccc(C2CC(=O)c3cc(-c4nc(-c5cccc([N+](=O)[O-])c5)cs4)c(=O)n(-c4ccccc4)c3C2)cc1 (centres undefined),inactive: 15.8%,
COc1cc(NC(=O)CC2C(=O)N(c3ccccc3)C(=O)N2Cc2ccc(F)cc2)cc(OC)c1 (centres undefined),,active: 13 µM
CCOC(=O)[C@H]1CCC[C@@H](NS(=O)(=O)c2ccc(NC(C)=O)cc2)C1,inactive: -23.6%,
COc1cc2c(cc1OC)C(c1cccc(Cl)c1)CC(=O)N2 (centres undefined),inactive: 5.98%,
CCOc1ccc(C2CC(=O)c3c([nH]c(C(=O)OCCOc4ccccc4)c3C)C2)cc1 (centres undefined),,active: 13 µM
O=C(O)CCN1C(=O)C2C3c4ccccc4C(c4ccccc43)[C@@H]2C1=O (some centres undefined),inactive: -5.74%,
CC(=O)OC[C@@]1(O)C[C@]23CCC4c5ccoc5CC[C@@]4(C)C2CCC1C3 (some centres undefined),inactive: -0.194%,
Cn1nccc1C(=O)N/N=C/c1c(O)ccc2ccccc12,,active: 4.61 µM
CCOC(=O)CCSc1n[nH]c(=S)s1,inactive: 30.3%,
CCOc1ccc(NC(=O)c2ccc3snnc3c2)cc1,inactive: -29.8%,
CCOc1ccc2nc(S(N)(=O)=O)sc2c1,inactive: -4.04%,
Cc1cc(C)nc(N/N=C/c2cn[nH]c2-c2ccccc2)n1,inactive: 17.7%,
O=C1OC(Cc2ccccn2)C(O)=C1C1=NCCCN1 (centres undefined),inactive: 33.3%,
CCOC(=O)C1=C(CN2CCN(c3ccc(Cl)cc3)CC2)NC(=O)NC1c1ccc(OC)cc1 (centres undefined),,active: 20.6 µM
NC(Cc1cc(I)c(Oc2ccc(O)c(I)c2)c(I)c1)C(=O)O (centres undefined),inactive: 18.1%,
Cc1c(C)n(Cc2ccccc2)c2ccc(C(=O)NCc3ccccc3F)cc12,,active: 18.4 µM
COc1ccc(N2C(=O)CSC2c2ccccc2)cc1 (centres undefined),inactive: 32.7%,

Structure (SMILES),"activity change, negative = growth inhibition",Potency
CCCCN(Cc1ccccc1)S(=O)(=O)c1ccc2c(c1)CC(C)N2C(=O)CC (centres undefined),,active: 23.1 µM
Cc1ccc(OCC(=O)c2cc(C)n(-c3cc(C)on3)c2C)c([N+](=O)[O-])n1,,active: 10.3 µM
CC[C@H](C)/C=C(C)/C=C/C1=CC2=CC(=O)[C@]3(C)OC(=O)[C@@H](C(C)=O)[C@@H]3C2=CO1,,active: 2.06 µM
OC(COCC1COc2ccccc2O1)CN1CCN(c2ccccn2)CC1 (centres undefined),inactive: -25%,
NC(=O)CN1CCN(C(=O)NC2CCCCC2)CC1,inactive: 52.3%,
Cc1cc(NC(=O)C2CCN(S(=O)(=O)c3c(C)noc3C)CC2)ccc1Br,inactive: -29.2%,
CC(=O)C[C@H]1c2ccccc2S(=O)(=O)N1C1CCCCC1,inactive: -16.8%,
CC(=O)CC(=O)Nc1ccc(Cl)cn1,inactive: 35.6%,
CCOc1ccc(CN2CCNC(=O)C2CC(=O)O)cc1 (centres undefined),inactive: 30.6%,
CCc1ccccc1N(C)C(=O)C1CCCN(c2ncnc3c2nc2n3CCCCC2)C1 (centres undefined),,active: 18.4 µM
CC(C)(C)c1cc(NC(=O)C2(C)CCN2C(=O)C2(c3ccccc3)CCCC2)no1 (centres undefined),,active: 14.6 µM
CCOc1ccc(N2CC(C(=O)N3CC(C)OC(C)C3)CC2=O)cc1 (centres undefined),inactive: 37.1%,
CCOC(=O)C1=C(CSc2nc3ccccc3s2)NC(=O)NC1c1ccc(OC)cc1 (centres undefined),,active: 20.6 µM
COc1ccc(OC)c(CNC(=O)C2CCN(S(=O)(=O)N3CCCCC3)CC2)c1,inactive: -1.98%,
Cc1ccc(NC(=O)CSc2nc(C)c(Cc3ccccc3)c(=O)[nH]2)cc1,inactive: 0.736%,
COC(=O)c1ccc(NC(=O)CCS(=O)(=O)c2ccc(Br)cc2)cc1,inactive: -13.5%,
CC(C)(C)OC(=O)NC(CC(=O)OCc1ccccc1)C(=O)O (centres undefined),inactive: -11.4%,
O=C1CN(C(=O)CNC(=O)c2ccccc2Cl)c2ccccc2N1,inactive: 24.1%,
Nc1cc(=O)[nH]c(N)n1,,inactive
COc1ccc(NC(=O)C2CCN(C(=O)Cc3ccccc3)CC2)c(OC)c1,inactive: 45.7%,
COc1cc(/C=N\NC(=O)c2ccccc2F)ccc1Oc1ccc([N+](=O)[O-])cn1,,active: 4.61 µM
O=S1(=O)CCOC[C@H](Cc2ccccc2)N1Cc1ccccc1Br,inactive: -0.698%,
CNC(=O)C(=O)NCC1OCCCN1S(=O)(=O)c1ccc2c(c1)OCCO2 (centres undefined),inactive: 34%,
CC(C)N1CCN(Cc2cc(F)ccc2-n2cccn2)CC1CCO (centres undefined),inactive: 43.4%,
N#C/C(=C/c1ccc(-c2cccc([N+](=O)[O-])c2)o1)C(=O)Nc1nc(-c2cccs2)cs1,inactive: -21.2%,

Structure (SMILES),"activity change, negative = growth inhibition",Potency
Cc1cccc(N2CCN(C(=O)c3ccccc3OCc3c(C)noc3C)CC2)c1C,,active: 18.4 µM
CC(=O)NC1CC2CCCC(C1)N2C(=O)Nc1cccc(Cl)c1 (centres undefined),inactive: 30.6%,
Nc1c(N(Cc2ccco2)C(=O)COc2ccccc2)c(=O)[nH]c(=O)n1Cc1ccccc1,inactive: 12%,
O=C1NS(=O)(=O)c2ccccc21,inactive: -18.6%,
Cc1ccc(S(=O)(=O)NC(=O)N(C)C2CCCCC2)cc1,inactive: 39.4%,
CC(C)(C)c1cc(NC(=O)COC(=O)C2CC2)n(-c2ccccc2)n1,inactive: -5.02%,
Cc1cccc(-c2nc(C)cc(=O)[nH]2)c1,inactive: 34%,
CC1CCCCN1C(=O)Cn1cnc2cc([N+](=O)[O-])ccc2c1=O (centres undefined),,active: 14.6 µM
OCC[C@@H]1C[C@@H](O)[C@H](O)[C@]2(Cc3ccccc3O2)O1,inactive: -6.27%,
CCCCCC(=O)N1C[C@H](O)[C@@H](n2cc(COC(=O)c3ccccc3)nn2)C[C@@H]1c1ccccc1,inactive: -22.4%,
CCOC(=O)[C@H](CCc1ccccc1)N[C@@H](C)C(=O)N1C(C(=O)O)C[C@@H]2CCC[C@@H]21 (some centres undefined),inactive: 0.0051%,
CCN(CC)c1ccc(NC(=O)c2cnn(-c3ccccc3)c2-n2cccc2)c(C)c1,,active: 14.6 µM
COc1ccc(-c2nc(CS(=O)(=O)CC(=O)NCc3ccccc3Br)c(C)o2)cc1,inactive: -1%,
CCOc1ccc(NC(=O)c2sc3nc4n(c(=O)c3c2C)CCC4)cc1,inactive: -6.12%,
Cc1ccc(N(CC(=O)N/N=C/c2ccc(OCC(N)=O)cc2)S(C)(=O)=O)cc1Cl,inactive: 32.1%,
O=C(N/C(=C/c1ccc(Br)cc1)C(=O)N1CCCC1)c1cccs1,inactive: -0.234%,
C[C@@H]1CN([C@H](C)CO)C(=O)Cc2cc(NC(=O)Cn3cnnn3)ccc2O[C@@H]1CN(C)Cc1ccc(Cl)c(Cl)c1,,active: 18.4 µM
CCn1c(SCC#N)nc2ccccc2c1=O,inactive: 6.23%,
COc1ccc(NC(=O)CSc2nc3ccccc3nc2N2CCOCC2)c(OC)c1,inactive: -23.7%,
Cc1cccc(CNC(=O)c2ccc3c(c2)N(C)CCS3)c1,inactive: -23.7%,
O=C(CCCN1CCN(c2ccccn2)CC1)c1ccc(F)cc1,,inactive
Cc1cc(C)c(S(=O)(=O)c2ccccc2C)c(OCCO)n1,inactive: 30.2%,
CC1CCN(CC(C)OC(=O)c2ccco2)CC1 (centres undefined),inactive: 23.3%,
N#CC1=C(N)OC2=C(C(=O)CCC2)C1c1ccoc1 (centres undefined),inactive: 0.278%,
